{"source": "paper PMC7070733", "about": "(Molecules, 2020)", "details": "2.5% DMSO / MES buffer", "data": [{"compound": "COC(=O)/C(C)=C/C(O)CC(C)C1(C)CC=C2C3CCC4C(C)(C)C(O)CCC4(C)C3(O)CCC21C", "note": "(stereo not shown) [GC2, Methyl (24E)-3a,9,23-trihydroxy-17,14-friedolanostan-14,24-dien-26-oate]", "values": [{"measurement": "solubility (in words)", "value": "low solubility"}]}]}
